44 sequences from the supplement of paper PMC11417369 can be followed below.

± gives the standard deviation of the averaged measurements. Some of the results follow.

The subject of the assay is PfAP2-I AP2 domain 3 (GST-tagged). Briefly: gcPBM binding intensity (ln(normalized median fluorescence intensity)); higher = stronger DNA binding. Put shortly:
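An Agilent 4 × 180k array carrying primer-extended double-stranded 36-bp intergenic genomic probes and negative controls received GST-tagged P. falciparum DNA-binding domains expressed in E. coli, about 25 μg on average, for 1 h. The binding buffer contained 1× PBS, 1% milk, 0.2 mg/ml BSA, 0.5% salmon testes DNA and 0.03% Triton X-100. Binding intensity is the top Masliner-normalised natural-log median intensity across replicate spots of either probe orientation, read after Alexa488 anti-GST antibody staining and a 488 nm scan.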
Regarding “ATAATTTTTTTTTTTTTTTTTTGAAAGTAGCATATG [CACACA_negctrl_site732]”, the “gcPBM binding intensity (ln)” value stood at 7.51 ± 0.54.

With “AATAATGAAGCTTATGCACACGTTCATTATTTATAT [CACACA_site5736]”, the “gcPBM binding intensity (ln)” value amounted to 9.72 ± 0.47.

Take “TAACAAAACCTTATATGTACACACATATACATCACA [XGTACX_site6772]”: the “gcPBM binding intensity (ln)” value was 7.91 ± 0.33.

In the case of “TTAAAAATGAACATATGTACATATATATATATATAT [XGTACX_site7923]”, the “gcPBM binding intensity (ln)” value is 9.45 ± 0.46.

“TTATCATTTTAAATCACACACATATATATATATATA [CACACA_site2849]”: the “gcPBM binding intensity (ln)” value stood at 9.305 ± 0.078.

For “ACTACAAGGCAATACAGTACATATAAATGTCATAAT [XGTACX_site8468]”, the “gcPBM binding intensity (ln)” value is 7.85 ± 0.45.

Turning to “AAAAAGGTTATTGGTACACACATATGTATTTATATA [CACACA_site4464]”, the “gcPBM binding intensity (ln)” value turned out to be 7.78 ± 0.49.

Turning to “TACCTTTTATTAATGTGTACCTAAAATATAATACTT [XGTACX_site192]”, the “gcPBM binding intensity (ln)” value was determined as 7.86 ± 0.55.

“AAAATATAAAAAGTCACACATATATATATTTATTTA [CACACA_site4872]”: the “gcPBM binding intensity (ln)” value came to 7.41 ± 0.52.

With “TTGAATGAAAAAATTTGTACTCATATAAATAATTTA [XGTACX_site4628]”, the “gcPBM binding intensity (ln)” value stood at 7.5 ± 0.31.

As to “CAATAATTTTTTGTGGGTACAAATAATTTTTTAAAT [XGTACX_site2407]”, the “gcPBM binding intensity (ln)” value worked out at 7.71 ± 0.38.

On to “AGGAGAAAAGATAAAGACTTCAAGAAAAAAAAATAA [TGCATGCA_negctrl_site258]”, for which the “gcPBM binding intensity (ln)” value turned out to be 7.45 ± 0.7.

As to “GATGCTAAAATTTATACACACAAAAAAAAAAAATTC [CACACA_site3284]”, the “gcPBM binding intensity (ln)” value was found to be 7.96 ± 0.65.

Turning to “AAAAAAAAAAAATATACACACACACCGACACATAAA [CACACA_site9270]”, the “gcPBM binding intensity (ln)” value stood at 8.04 ± 0.42.

Turning to “TATTTTATGTAAATTGGTACACATATGTCAGTAAAA [XGTACX_site7111]”, the “gcPBM binding intensity (ln)” value was 8.04 ± 0.48.

With “TTTCATATTTTGTCCTGTTTTTTTTTTTTTTTTCTT [CACACA_negctrl_site993]”, the “gcPBM binding intensity (ln)” value came to 7.53 ± 0.59.

On to “TTTTGAATATTTGGTCGTACGTAAAAATAGATAATT [XGTACX_site5755]”, for which the “gcPBM binding intensity (ln)” value amounted to 8.12 ± 0.44.

As to “ATATTTATGGAAAAAGAACACACAATCAAACAAAAA [CACACA_site9233]”, the “gcPBM binding intensity (ln)” value came out at 8.14 ± 0.54.

Turning to “CTTTTTTATATCTCTACACACATTTATAACCATTTG [CACACA_site4897]”, the “gcPBM binding intensity (ln)” value was 7.94 ± 0.65.

In the case of “ATACATTTATTGTATTGTACATAATATTATATATTC [XGTACX_site7115]”, the “gcPBM binding intensity (ln)” value is 7.76 ± 0.57.

Consider “TATTTTAAAAAAAAAAGTACACATAATATATATAAC [XGTACX_site5416]”, for which the “gcPBM binding intensity (ln)” value was found to be 8.06 ± 0.22.

As for “TAATATAATAGAAGTGTACACACATATTTATGGGTG [CACACA_site9023]”, the “gcPBM binding intensity (ln)” value came to 8.12 ± 0.45.

Turning to “AATAATTTTTAAATATAAACATTTTTTTTTTTTTTT [GTGCAC_negctrl_site532]”, the “gcPBM binding intensity (ln)” value amounted to 7.96 ± 0.64.

“ATTAAATGCACATATACACACACCCAATTTTAAGTT [CACACA_site3049]”: the “gcPBM binding intensity (ln)” value amounted to 10.1 ± 0.45.

Turning to “ATATATATATATTCCACACACACACCCAAAAAAAAA [CACACA_site3649]”, the “gcPBM binding intensity (ln)” value amounted to 9.43 ± 0.18.

Take “ACAAAATAAACCACGTGTACAAATTTATAATGTGTA [XGTACX_site1153]”: the “gcPBM binding intensity (ln)” value was 7.96 ± 0.42.

For the sequence “ATAAAATATTAGACATTTATTAATATTACACATATC [XGTACX_negctrl_site364]”, the “gcPBM binding intensity (ln)” value is 7.5 ± 0.66.

With “TTTTATTTTTTATTTGCACACAATATGTAAAAAAAT [CACACA_site2927]”, the “gcPBM binding intensity (ln)” value is 10.2 ± 0.53.

Take TTATAATAAAGAGGAGTGCAAAAAAAAAAAAAAAAA: the “gcPBM binding intensity (ln)” value stood at 10.5 ± 0.45.

Turning to “AATCAAAATATATCTACACACATTTAAGTAACACAT [CACACA_site3482]”, the “gcPBM binding intensity (ln)” value turned out to be 7.84 ± 0.46.

Take “TAAATATCAAAACACACACACAAAAGTGAATAAATA [CACACA_site3762]”: the “gcPBM binding intensity (ln)” value stood at 7.62 ± 0.44.

For “AAAAAAAAAAAAAACACACACACACCCACATATACA [CACACA_site2663]”, the “gcPBM binding intensity (ln)” value stood at 8.47 ± 0.56.

In the case of “TATAAGGTGTCCTATACACACTCCAATAAATATATA [CACACA_site2091]”, the “gcPBM binding intensity (ln)” value came out at 7.9 ± 0.31.

As for “TAAAGAGAAAAACATACACACACAACAAAATATGTA [CACACA_site8872]”, the “gcPBM binding intensity (ln)” value was determined as 7.57 ± 0.5.

On to “AGGAACATAAGCAATGTATAAACATAAAACTATAAT [CACACA_negctrl_site1832]”, for which the “gcPBM binding intensity (ln)” value was 7.67 ± 0.64.

As to “TATTAATTAAACCATACACACATAACTTTTTTATAA [CACACA_site6526]”, the “gcPBM binding intensity (ln)” value is 7.67 ± 0.36.

ATTTTTTTCTTAGGAGTGCACTTATATTTATTTTAT: the “gcPBM binding intensity (ln)” value worked out at 10.8 ± 0.49.

Regarding “ACAAGGAATATATAAGATAATTTTAAATATAACACG [CACACA_negctrl_site1734]”, the “gcPBM binding intensity (ln)” value worked out at 7.78 ± 0.56.

“ATATATATAATTTTTACACACGCAATAAATATATAT [CACACA_site218]”: the “gcPBM binding intensity (ln)” value stood at 8.01 ± 0.67.

For “TATACATACATACATACACACACACCGATATATACA [CACACA_site8184]”, the “gcPBM binding intensity (ln)” value amounted to 8.15 ± 0.35.

Take “TTCCAAAAAATTATTACACACATATGGGCACATATA [CACACA_site679]”: the “gcPBM binding intensity (ln)” value was 7.91 ± 0.45.

For “ATTCTATAATATAAGAGTACTTATTTTTTTTAATTT [XGTACX_site7671]”, the “gcPBM binding intensity (ln)” value turned out to be 7.64 ± 0.48.

On to “TATAAAATTAAACAAAGTACTAGACATATATATAGA [XGTACX_site3247]”, for which the “gcPBM binding intensity (ln)” value turned out to be 7.74 ± 0.54.

For the sequence “AATGTTATTTGTTTATCACACATTAGGATGTTTATA [CACACA_site5710]”, the “gcPBM binding intensity (ln)” value was determined as 7.78 ± 0.74.
